This is an account of results in ChEMBL document CHEMBL4888484, “Replenishing the malaria drug discovery pipeline: Screening and hit evaluation of the MMV Hit Generation Library 1 (HGL1) against asexual blood stage Plasmodium falciparum ,using a nano luciferase reporter read-out” (2022).

Hit rate of the full screen: of about 150,000 compounds, about 540 (0.36%) showed an effect of 50% or more. Some of the results follow.

For this test, the system named is Plasmodium falciparum. Description: Primary screen in NF54 nanoGlo assay, in single point, at 2uM, 72h; a lower Z score goes with more inhibition. Format: functional, Erythrocyte. The note with it: timepoint 72 hour.
Usually % Inhibition stands for the relative decrease from the control value, in per cent. For `CC[C@H](N)C(=O)N(C)Cc1cccc(F)c1`, the “% Inhibition” value is given as -9% and the Z score was 1.5.

`O=C(NC(c1ccc(F)cc1F)[C@H]1C[C@H](O)C1)c1cscn1` (some centres undefined): the “% Inhibition” value came out at 2% and the Z score is recorded as -0.21.

With `COc1ccc([C@@H](C)NS(=O)(=O)c2cccc(C(=O)N3CCC3)c2)cc1`, the “% Inhibition” value was -5% and the Z score is on record as 0.75.

For `CC1CN(Cc2ccccc2)CCC1NC(=O)NC1CCCCC1O` (centres undefined), the “% Inhibition” value is given as 0% and the Z score is listed as -0.02.

Take `COCCn1cncc1CN1CCC(CNC(=O)c2scnc2C)CC1`: the “% Inhibition” value is reported as -9% and the Z score came to 1.94.

With `FC(F)(F)C[C@H]1CCCN(c2ncnc3[nH]ccc23)C1`, the “% Inhibition” value is reported as -6% and the Z score worked out at 0.82.

`COCC(=O)Nc1cc(C(=O)N[C@H](C)c2ccc(OC)cc2)c2c(c1)ncn2CCc1ccccc1`: the “% Inhibition” value is given as 22% and the Z score is on record as -2.78.

Turning to `Cc1cccc(NC(=O)N2CCN(c3nccs3)CC2)c1C`, the “% Inhibition” value was -7% and the Z score is 1.34.

With `Cc1noc(C2CC(F)CN2C(=O)c2ccc(Br)o2)n1` (centres undefined), the “% Inhibition” value is recorded as 1% and the Z score is on record as -0.12.

On to `Clc1ccc(CCCn2cncn2)cc1`, for which the “% Inhibition” value is recorded as -3% and the Z score was 0.57.

As to `CN(CCC#N)C(=O)N[C@H](c1ccc(F)c(Cl)c1)C(F)(F)F`, the “% Inhibition” value is reported as -7% and the Z score turned out to be 1.22.

With `CC(C)c1ccc(-c2cc(C(=O)Nc3sc4c(c3C#N)CC[C@H](C)C4)c3ccccc3n2)cc1`, the “% Inhibition” value was determined as 2% and the Z score is given as -0.25.

Take `CC(C)(C)OC(=O)N1CC2CC3CC2C1C3=O` (centres undefined): the “% Inhibition” value is reported as -10% and the Z score worked out at 1.06.

As to `CCOC[C@H](C)CS(=O)(=O)NCCc1cnoc1`, the “% Inhibition” value is recorded as 1% and the Z score is -0.14.

In the case of `Cc1nc([C@H](C)N(C)C(=O)c2cn(Cc3ccc(Cl)cc3)nn2)c(C)s1`, the “% Inhibition” value was -11% and the Z score is reported as 1.46.

On to `CCN1CCN(C(=O)c2nc(N(CC)CC)c3c(C)cc(C)nc3n2)CC1`, for which the “% Inhibition” value is -7% and the Z score turned out to be 1.2.

For the molecule `O[C@H](CN1CCN(Cc2cncs2)CC1)c1cc2ccccc2o1`, the “% Inhibition” value is recorded as -7% and the Z score came to 0.98.

With `CN(C(=O)N1CCCC[C@H](NC(=O)c2cnn(C)c2)C1)c1ccccc1`, the “% Inhibition” value is listed as -5% and the Z score amounted to 0.92.

On to `Cc1cc(F)ccc1C(=O)NS(=O)(=O)N1CCCC1`, for which the “% Inhibition” value came out at 2% and the Z score was -0.29.

As to `O=C(COc1ccc(F)cc1)N1CC2(C[C@H](N3CCOCC3)CO2)C1`, the “% Inhibition” value was -22% and the Z score came out at 3.48.

Take `COc1ccc2c(c1)C(N1CCN(S(=O)(=O)c3ccccc3C)CC1)=Nc1ccccc1O2`: the “% Inhibition” value was found to be 8% and the Z score is -1.12.

For the molecule `COC(=O)[C@@H]1CCCCN1Cc1c(C(=O)N2CCCN(C)CC2)nc2sccn12`, the “% Inhibition” value is -8% and the Z score is on record as 0.9.

Consider `CCc1ccsc1C(=O)NCC(C)(C)C(N)=O`, for which the “% Inhibition” value is recorded as -12% and the Z score came out at 1.09.

For `NC(=O)c1ccc(CN(C(=O)c2[nH]ccc2C2CC2)C2CC2)c(F)c1`, the “% Inhibition” value is -8% and the Z score is on record as 1.33.

For `O=C(C1CCOCC1)N1CCN(c2cnccn2)C[C@@H](O)C1`, the “% Inhibition” value is -15% and the Z score amounted to 1.69.

As to `CC(NC(=O)c1n[nH]c2ccccc12)C1CCCO1` (centres undefined), the “% Inhibition” value was -2% and the Z score is listed as 0.39.

`CC(C)(c1nc(Cc2cccnc2)no1)S(=O)(=O)C1CC1`: the “% Inhibition” value came out at 19% and the Z score is reported as -2.36.

On to `CCC(C(=O)N1CCC2(CC1)C(=O)N(CC(=O)NCC1CCCO1)CN2c1ccccc1)c1ccccc1` (centres undefined), for which the “% Inhibition” value was -25% and the Z score turned out to be 2.63.

With `FC(F)(F)c1nc(-c2ccc3c(c2)OCCO3)n[nH]1`, the “% Inhibition” value is 2% and the Z score was -0.27.

In the case of `Cn1cnc2cc(CNCc3ccc(C(=O)O)cc3)ccc21`, the “% Inhibition” value is reported as -11% and the Z score is on record as 1.6.

Regarding `CC1COCCC1Nc1ccc2[nH]ncc2c1` (centres undefined), the “% Inhibition” value amounted to 10% and the Z score was -1.59.

Consider `Cn1nc(-c2cccs2)cc1CNC(=O)Cc1ccc(F)cc1`, for which the “% Inhibition” value is on record as -10% and the Z score is recorded as 1.32.

For `O=C(CCc1ccccc1Br)N1CC(CN2C(=O)CCC2=O)C1`, the “% Inhibition” value is -10% and the Z score worked out at 1.99.

For `Cn1cccc1CNC(=O)c1cc2ccc(Cl)cc2s1`, the “% Inhibition” value was -13% and the Z score is given as 1.88.

Take `COc1ccc(NC(=O)Cn2nc3c(N4CCCCCC4)nccn3c2=O)c(OC)c1`: the “% Inhibition” value is listed as -5% and the Z score is listed as 0.45.

With `Cc1cc2[nH]c(=O)[nH]c2c(NC(=O)C[C@H]2C(=O)NCCN2C(C)C)c1C`, the “% Inhibition” value was -5% and the Z score is given as 0.61.

In the case of `Cc1ccc(-c2cc3n(n2)CCC(=O)N3CC(=O)N2CCCCC2)cc1`, the “% Inhibition” value is recorded as -15% and the Z score is 1.48.

On to `Cc1ccc2c(c1)CCCN2C(=O)CNCCc1nc(-c2cccnc2)n[nH]1`, for which the “% Inhibition” value is listed as -3% and the Z score came to 0.32.

In the case of `O=C(NCc1ccco1)c1nc(-c2ccncc2)cs1`, the “% Inhibition” value came out at 28% and the Z score is on record as -4.11.

`Cc1cnc(CN2C[C@]3(CCCN(C(=O)c4cccs4)C3)CCC2=O)cn1`: the “% Inhibition” value is given as -9% and the Z score was determined as 1.5.

Take `CC(C)(CO)C(=O)N1CC[C@H](O)[C@@H](C2CCCC2)C1`: the “% Inhibition” value was -11% and the Z score turned out to be 1.85.

`O=C(NCCC1CS(=O)(=O)C1)N[C@@H]1CCCc2ccc(Cl)cc21`: the “% Inhibition” value is recorded as -4% and the Z score is on record as 0.54.
